From the supplement of paper PMC4466236
The full ranking holds about 33,000 sequences; the median of “E-score (dimensionless, -0.5 to 0.5)” is about -0.058, and the highest 2% start at about 0.35. Some of the results follow.

What follows are sequences tested on MvaT (assay: PBM 8-mer E-score (mean of HK and ME arrays) (E-score (dimensionless, -0.5 to 0.5)); higher = stronger relative binding preference; most listed sequences are background and not binding sites).
In short: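 Reported values are rank-based E-scores, taken as the mean of two universal arrays and parsed with a custom script. Each 8-mer score falls between -0.5 and 0.5. The arrays, ME and HK, were double-stranded 60-mers with a constant 25-mer primer region and a variable 35-mer region covering all 8-mers. They were probed, by an earlier protocol, with full-length P. aeruginosa MvaT carrying an N-terminal glutathione S-transferase fusion.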
With AATCACGC the “PBM 8-mer E-score” value was -0.0219. In the case of CTATTTAC, the “PBM 8-mer E-score” value is reported as 0.318. For GCGAGTGA, the “PBM 8-mer E-score” value was -0.0916. AACATCAA was tested, and the “PBM 8-mer E-score” value was 0.182. For TGGTAAAA, the “PBM 8-mer E-score” value was 0.0973. ACTAAGAT was tested, and the “PBM 8-mer E-score” value was 0.252. For CGTAGGTC, the “PBM 8-mer E-score” value was -0.345. In the case of CGTCTCAC, the “PBM 8-mer E-score” value is reported as -0.114. With AATGCAAG the “PBM 8-mer E-score” value was 0.109. With CAATCCGC the “PBM 8-mer E-score” value was -0.18. In the case of CGAGAGAC, the “PBM 8-mer E-score” value is reported as -0.277. In the case of ATACCTAT, the “PBM 8-mer E-score” value is reported as 0.13. For ATAGAGGG, the “PBM 8-mer E-score” value was -0.199. ACTTCTCC was tested, and the “PBM 8-mer E-score” value was 0.2. CACATACA was tested, and the “PBM 8-mer E-score” value was 0.242. In the case of ATTTTGGG, the “PBM 8-mer E-score” value is reported as 0.169. CAAACTTA was tested, and the “PBM 8-mer E-score” value was 0.272. With CTAAACCC the “PBM 8-mer E-score” value was -0.00994. AACTACCA was tested, and the “PBM 8-mer E-score” value was 0.17. In the case of GGTCGTCA, the “PBM 8-mer E-score” value is reported as -0.219. CACCACGG was tested, and the “PBM 8-mer E-score” value was -0.206. GCTCTGCA was tested, and the “PBM 8-mer E-score” value was -0.291. With AAGCTTAA the “PBM 8-mer E-score” value was 0.12. In the case of TTCTCAAA, the “PBM 8-mer E-score” value is reported as 0.147. CCAGTTTC was tested, and the “PBM 8-mer E-score” value was -0.0566. CCACGGAG was tested, and the “PBM 8-mer E-score” value was -0.0786. For AAGCTAAG, the “PBM 8-mer E-score” value was -0.0822. In the case of TCCAAGAA, the “PBM 8-mer E-score” value is reported as -0.0455. CACCCAGG was tested, and the “PBM 8-mer E-score” value was -0.241. For ATTAGGTC, the “PBM 8-mer E-score” value was 0.0956. For AGCACTTA, the “PBM 8-mer E-score” value was -0.0328. With CTACGTTA the “PBM 8-mer E-score” value was -0.036. GTTGTTCA was tested, and the “PBM 8-mer E-score” value was 0.128. TAGTACTA was tested, and the “PBM 8-mer E-score” value was 0.174. In the case of GAATTAAA, the “PBM 8-mer E-score” value is reported as 0.385. With ACCGCCGG the “PBM 8-mer E-score” value was -0.0768. AGCATGCT was tested, and the “PBM 8-mer E-score” value was -0.199. CGACACAG was tested, and the “PBM 8-mer E-score” value was -0.183. With CCCAACAA the “PBM 8-mer E-score” value was 0.0257. In the case of ATTATTAG, the “PBM 8-mer E-score” value is reported as 0.411. GGTCTCAA was tested, and the “PBM 8-mer E-score” value was -0.207. In the case of GCCTGTGA, the “PBM 8-mer E-score” value is reported as -0.155. GTCGTCAC was tested, and the “PBM 8-mer E-score” value was -0.234. With ACGGTGAA the “PBM 8-mer E-score” value was 0.00351. CTAGATCC was tested, and the “PBM 8-mer E-score” value was -0.119. CCTAAACC was tested, and the “PBM 8-mer E-score” value was -0.0826. With GACAGTCA the “PBM 8-mer E-score” value was -0.171. For TAGTTTCA, the “PBM 8-mer E-score” value was 0.224. In the case of GTAAATAA, the “PBM 8-mer E-score” value is reported as 0.366. In the case of ATATGCCG, the “PBM 8-mer E-score” value is reported as 0.181. AGTAGCTC was tested, and the “PBM 8-mer E-score” value was -0.137. For ACTGGACT, the “PBM 8-mer E-score” value was -0.0688. For GGAACTCC, the “PBM 8-mer E-score” value was -0.224. For TACATGAA, the “PBM 8-mer E-score” value was 0.147. In the case of CACCTCGG, the “PBM 8-mer E-score” value is reported as -0.182. For CACAGACG, the “PBM 8-mer E-score” value was -0.11. With AGGACATA the “PBM 8-mer E-score” value was 0.0627. With GACATAAA the “PBM 8-mer E-score” value was 0.144. For GTCCTGTA, the “PBM 8-mer E-score” value was -0.124. In the case of GTATCCTA, the “PBM 8-mer E-score” value is reported as -0.0757. For CTAAATCA, the “PBM 8-mer E-score” value was 0.0639. In the case of AGAAATAG, the “PBM 8-mer E-score” value is reported as 0.216. In the case of GATACACA, the “PBM 8-mer E-score” value is reported as 0.0369. For CATTTTGG, the “PBM 8-mer E-score” value was -0.0361. In the case of ACACTGCT, the “PBM 8-mer E-score” value is reported as 0.0055. For CTCTCCGA, the “PBM 8-mer E-score” value was -0.171. With GTACCCGA the “PBM 8-mer E-score” value was -0.144. In the case of TGCCAGAA, the “PBM 8-mer E-score” value is reported as -0.102. For GAGAAGAA, the “PBM 8-mer E-score” value was -0.0284. ACTGAGAG was tested, and the “PBM 8-mer E-score” value was -0.191. For AGCGATTG, the “PBM 8-mer E-score” value was -0.101. With CCTACATA the “PBM 8-mer E-score” value was 0.115. GGGTCTGA was tested, and the “PBM 8-mer E-score” value was -0.0915. For AGTCGAAA, the “PBM 8-mer E-score” value was -0.0704. With AGGTTCTG the “PBM 8-mer E-score” value was -0.13. GTGGCATA was tested, and the “PBM 8-mer E-score” value was 0.0717. ACTTCTAA was tested, and the “PBM 8-mer E-score” value was 0.242. For GCCCGTCC, the “PBM 8-mer E-score” value was -0.237. With TACTTGCA the “PBM 8-mer E-score” value was 0.306. With ACGGTACG the “PBM 8-mer E-score” value was -0.0791. In the case of ATCCGCTG, the “PBM 8-mer E-score” value is reported as -0.0237. In the case of AACTTCCG, the “PBM 8-mer E-score” value is reported as 0.191. With GAAAGAGA the “PBM 8-mer E-score” value was -0.126. With ACCGTCCC the “PBM 8-mer E-score” value was -0.2. With CTTCTAGA the “PBM 8-mer E-score” value was 0.0287. In the case of ACTTTAAT, the “PBM 8-mer E-score” value is reported as 0.414. For ATGCAGTA, the “PBM 8-mer E-score” value was 0.0837. AACAGAAT was tested, and the “PBM 8-mer E-score” value was 0.0463. In the case of ACGGAGCG, the “PBM 8-mer E-score” value is reported as -0.116. GTATTCAA was tested, and the “PBM 8-mer E-score” value was 0.0763. With AAGCACCT the “PBM 8-mer E-score” value was -0.225. In the case of GCATAAAA, the “PBM 8-mer E-score” value is reported as 0.144. In the case of CCGGGTGA, the “PBM 8-mer E-score” value is reported as -0.208. For AAGTGCGT, the “PBM 8-mer E-score” value was -0.0188. With CTCGGCAG the “PBM 8-mer E-score” value was -0.0953. With CACCTGCG the “PBM 8-mer E-score” value was -0.14. In the case of ATATTGGC, the “PBM 8-mer E-score” value is reported as 0.177. ACTCGTGA was tested, and the “PBM 8-mer E-score” value was -0.0788. With CGTCCCGC the “PBM 8-mer E-score” value was -0.189. With AACGTTCG the “PBM 8-mer E-score” value was -0.102. In the case of ATGTGAGC, the “PBM 8-mer E-score” value is reported as -0.189. In the case of TCAGGTCA, the “PBM 8-mer E-score” value is reported as -0.0957. With AAGATAGC the “PBM 8-mer E-score” value was 0.0337. AAGCTTTG was tested, and the “PBM 8-mer E-score” value was -0.0765. AAAAGGCA was tested, and the “PBM 8-mer E-score” value was 0.00305. With AAAGTGCT the “PBM 8-mer E-score” value was 0.105. AGCACCGA was tested, and the “PBM 8-mer E-score” value was -0.159. ATACTGGA was tested, and the “PBM 8-mer E-score” value was 0.0175. CTGACAAA was tested, and the “PBM 8-mer E-score” value was 0.139.
